The other results are listed elsewhere or left out. Many values rest on one well or one pass, so single values are uncertain.
test system: A101D; experiment: cell count relative to DMSO control; melanoma cells; higher = more viable cells; conditions: library dose: low library concentration; 72 h
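Further: cell number obtained by counting DAPI-stained nuclei in high-throughput microscope images with image analysis software, screen run in 1,536-well plates.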

Row | Compound | cell count [%]
1 | CC(C)C[C@H](NC(=O)[C@H](Cc1ccccc1)NC(=O)c1cnccn1)B(O)O [Bortezomib] + N.N.[Cl][Pt][Cl] [cisplatin] (first compound 0.001 µM, partner dose 1.6 µM) | 36.6
2 | CC(C)C[C@H](NC(=O)[C@H](Cc1ccccc1)NC(=O)c1cnccn1)B(O)O [Bortezomib] + C[As](C)SC[C@H](NC(=O)CC[C@H](N)C(=O)O)C(=O)NCC(=O)O [Darinaparsin] (first compound 0.001 µM, partner dose 0.4 µM) | 31.5
3 | Cc1nc(Nc2ncc(C(=O)Nc3c(C)cccc3Cl)s2)cc(N2CCN(CCO)CC2)n1 [dasatanib] + C/C(O)=C(\C#N)C(=O)Nc1cc(Br)ccc1Br [LFM-A13] (first compound 0.004 µM, partner dose 2 µM) | 79.7
4 | Cn1c(Nc2ccc(C(F)(F)F)cc2)nc2cc(Oc3ccnc(-c4ncc(C(F)(F)F)[nH]4)c3)ccc21 + O=C(Oc1ccc([N+](=O)[O-])cc1)N1CCC(C(O)(c2ccc3c(c2)OCO3)c2ccc3c(c2)OCO3)CC1 [JZL184] (first compound 0.08 µM, partner dose 1 µM) | 71.1
5 | C#Cc1cccc(Nc2ncnc3cc(OCCOC)c(OCCOC)cc23)c1 [erlotinib] + C[As](C)SC[C@H](NC(=O)CC[C@H](N)C(=O)O)C(=O)NCC(=O)O [Darinaparsin] (first compound 0.8 µM, partner dose 0.4 µM) | 96
6 | Nc1ccn([C@@H]2O[C@H](CO)[C@@H](O)C2(F)F)c(=O)n1 [gemcitabine] + C[As](C)SC[C@H](NC(=O)CC[C@H](N)C(=O)O)C(=O)NCC(=O)O [Darinaparsin] (first compound 0.0004 µM, partner dose 0.4 µM) | 93.1
